33 compounds from the supplement of paper PMC5919970 can be followed below.

Counter-ions that a name gives are not always drawn. Over roughly 2,000 compounds, “fractional viability relative to vehicle” has its median near 0.92; the lowest 2% begin near 0.11. The list shows a part of the results.

The assay deals with TYKNU. The experiment in a line: fractional viability relative to vehicle; TYKNU is a high-grade serous ovarian cancer line; higher = less growth inhibition. Particulars: 72 h, genotype: OPA1 knockout (sgOPA1 #2). Put shortly: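 TYKNU control cells or lentiCRISPRv2 knockout derivatives were seeded at 500 cells per well into drug-stamped 384-well plates holding a ~2100-compound library at 2 or 10 μM, in duplicate. Cells were grown at 37 °C in 5% CO2 in RPMI 1640 with 10% FBS, and drug treatment lasted 72 h. Viability was read by Cell Titer Glo luminescence. Duplicate treatment wells were averaged and normalised to duplicate control wells from the same plate position.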

`COc1cc2ncnc(Nc3ccc(Cl)cc3F)c2cc1OC` came in with a fractional viability (2uM) of 1.25 and a fractional viability (10uM) of 1.64.
For `Oc1ccc(Nc2nc(-c3ccc(Cl)cc3)cs2)cc1`, in that order: 0.838 and 0.833.
`N#Cc1ccc2[nH]c(O)c(-c3ccc(CN4CCOCC4)cn3)c2c1`: the fractional viability (2uM) is 1.07 and the fractional viability (10uM) was 0.707.
In the same order, the values of `CO[C@H]1C[C@@H]2CC[C@@H](C)[C@@](O)(O2)C(=O)C(=O)N2CCCC[C@H]2C(=O)O[C@H]([C@H](C)C[C@@H]2CC[C@@H](O)[C@H](OC)C2)CC(=O)[C@H](C)/C=C(\C)[C@@H](O)[C@@H](OC)C(=O)[C@H](C)C[C@H](C)/C=C/C=C/C=C/1C` [Rapamycin (Sirolimus)] are 0.942 and 0.868.
Consider `N[C@@H]1CCCN(c2c(/C=C3\SC(=O)NC3=O)cccc2-c2ccccc2)C1`, for which the fractional viability was determined as 1.06 (2uM) and 0.941 (10uM).
In the same order, the values of `CN(C)C(=O)c1ccc(S(=O)(=O)c2ccc(NC(=O)[C@@](C)(O)C(F)(F)F)c(Cl)c2)cc1` are 0.83 and 0.753.
Turning to `C#C[C@]1(O)CC[C@H]2[C@@H]3CCc4cc(OC)ccc4[C@H]3CC[C@@]21C` [Mestranol], the fractional viability is, setting by setting: (2uM) 1.11; (10uM) 0.958.
As for `CC(C)NCC(O)c1ccc(NS(C)(=O)=O)cc1` (stereo unspecified) [Sotalol], the fractional viability is, setting by setting: (2uM) 0.988; (10uM) 0.845.
Take `CNc1ncc2cc(-c3cc(NC(=O)NCCC(C)(C)C)c(F)cc3C)c(C)nc2n1`: the fractional viability was found to be 0.828 (2uM) and 0.775 (10uM).
For the compound `COc1cc(C=O)ccc1O` [Vanillin], the fractional viability runs as follows: (2uM) 1.11; (10uM) 0.938.
For `C1=N/C2=N/c3ccc(OCCN4CCCC4)c(c3)COC/C=C/COCc3cccc(c3)C(=C1)N2` [Pacritinib (SB1518)], the fractional viability by setting is: (2uM) 0.318; (10uM) 0.0734.
In the same order, the values of `Cc1[nH]c(/C=C2\C(=O)Nc3ccccc32)c(C)c1CCC(=O)O` [TSU-68 (SU6668, Orantinib)] are 1.1 and 1.05.
As to `CC(=O)N1CCN(c2ccc(OCC3COC(Cn4ccnc4)(c4ccc(Cl)cc4Cl)O3)cc2)CC1` (stereo unspecified) [Ketoconazole], the fractional viability is, setting by setting: (2uM) 1.05; (10uM) 0.864.
For `CN(CCOc1ccc(NS(C)(=O)=O)cc1)CCc1ccc(NS(C)(=O)=O)cc1` [Dofetilide], in that order: 1.08 and 0.78.
For `CCN(CC)CCCC(C)Nc1c2ccc(Cl)cc2nc2ccc(OC)cc12` (stereo unspecified) [Quinacrine 2HCl], the fractional viability (2uM) came to 0.837 and the fractional viability (10uM) was determined as 0.105.
For the compound `Cc1nc(C)c(Cl)c(O)c1Cl` [Clopidol], the fractional viability reads like this: (2uM) 0.76; (10uM) 1.03.
For `O=C(O)P(=O)(O)O` [Foscarnet Sodium], in that order: 0.963 and 1.04.
In the same order, the values of `CC(C)(C)NS(=O)(=O)c1cncc(-c2cc(F)c3nc(N)nn3c2)c1` are 1.04 and 1.06.
In the same order, the values of `OC[C@@H](O)[C@@H](O)[C@H](O)[C@H](O)CO` [D-Mannitol] are 0.994 and 0.801.
`C[C@H](NCc1ccc(OCc2cccc(F)c2)cc1)C(N)=O` [Safinamide Mesylate]: the fractional viability by setting is: (2uM) 1.13; (10uM) 1.11.
In the same order, the values of `CC(=O)OCC(=O)NCCCOc1cccc(CN2CCCCC2)c1` [Roxatidine Acetate HCl] are 0.975 and 1.19.
In the same order, the values of `CCn1cc(C(=O)O)c(=O)c2cc(F)c(N3CCNCC3)nc21` [Enoxacin] are 1.01 and 0.993.
With `CC(C(=O)O)c1cccc(Oc2ccccc2)c1` (stereo unspecified) [Fenoprofen calcium hydrate], the fractional viability by setting is: (2uM) 0.951; (10uM) 0.994.
For `CC(C(=O)O)c1cccc(Oc2ccccc2)c1` (stereo unspecified) [Fenoprofen Calcium], in that order: 1.21 and 1.04.
For `COCCOc1nc(-c2ccc(Cl)c(Cl)c2)n(-c2ccc(NC(=O)CCl)cc2)n1` [MI-2 (MALT1 inhibitor)], the fractional viability was found to be 1 (2uM) and 0.952 (10uM).
In the same order, the values of `OC[C@H]1OC(O)[C@H](O)[C@@H](O)[C@@H]1O` (stereo partly specified) [Dextrose] are 0.997 and 0.94.
In the case of `O=C1NC(=O)C(c2ccccc2[N+](=O)[O-])=C1Nc1ccc(O)c(Cl)c1`, the fractional viability amounted to 1.03 (2uM) and 1.01 (10uM).
For the compound `O=C1NC(=O)/C(=C/c2ccc3nccc(-c4ccncc4)c3c2)S1`, the fractional viability turned out to be 0.755 (2uM) and 0.435 (10uM).
For `CCCc1ncc(C[n+]2ccccc2C)c(N)n1` [Amprolium HCl], in that order: 1.07 and 0.94.
As to `CCCCCOc1ccc(-c2ccc(-c3ccc(C(=O)N[C@H]4C[C@@H](O)[C@@H](O)NC(=O)[C@@H]5[C@@H](O)[C@@H](C)CN5C(=O)[C@H]([C@@H](C)O)NC(=O)[C@H]([C@H](O)[C@@H](O)c5ccc(O)cc5)NC(=O)[C@@H]5C[C@@H](O)CN5C(=O)[C@H]([C@@H](C)O)NC4=O)cc3)cc2)cc1`, the fractional viability worked out at 1.02 (2uM) and 0.857 (10uM).
Regarding `CC(C)c1nc(N(C)S(C)(=O)=O)nc(-c2ccc(F)cc2)c1/C=C/[C@@H](O)C[C@@H](O)CC(=O)O` [Rosuvastatin Calcium], the fractional viability worked out at 1.06 (2uM) and 1.07 (10uM).
Turning to `O=C(COc1cccc2c(=O)[nH]ccc12)c1ccccc1`, the fractional viability was found to be 0.81 (2uM) and 1.01 (10uM).
In the same order, the values of `CCNC(=O)[C@H]1O[C@@H](n2cnc3c(N)nc(NCCc4ccc(CCC(=O)O)cc4)nc32)[C@H](O)[C@@H]1O` are 1.09 and 1.13.
